For 31 molecules, binding signal results are on record in publication PMC9911399, “Two distinct binding modes provide the RNA-binding protein RbFox with extraordinary sequence specificity”.

The labels stand for the following.
B1: UUCAUCC (DNA:RNA)
RNA: GGGAGACCGGAAUUCAGAUUGUCCUUCAUCCUUAAAUCCCGUCGUAGCCACCA
DNA 1: CAATCTGAATTCCGGTCTCCC
DNA 2: TGGTGGCTACGACGGGATT
B2: GUCGAGG (DNA:RNA)
RNA: B1 RNA with U25G, A28G, U29A, C30G, C31G
DNA 1: CAATCTGAATTCCGGTCTCCC
DNA 2: TGGTGGCTACGACGGGATT
B3: GUGAAGA (DNA:RNA)
RNA: B1 RNA with U25G, C27G, U29A, C30G, C31A
DNA 1: CAATCTGAATTCCGGTCTCCC
DNA 2: TGGTGGCTACGACGGGATT
B4: CCGUGAG (DNA:RNA)
RNA: GGGAGACCGGAAUUCAGAUUGUCCCCGUGAGUUAAAUCCCGUCGUAGCCACCA
DNA 1: CAATCTGAATTCCGGTCTCCC
DNA 2: TGGTGGCTACGACGGGATT
B5: GAGGGUU (DNA:RNA)
RNA: B4 RNA with C25G, C26A, U28G, A30U, G31U
DNA 1: CAATCTGAATTCCGGTCTCCC
DNA 2: TGGTGGCTACGACGGGATT
B6: UAGCCCG (DNA:RNA)
RNA: B4 RNA with C25U, C26A, U28C, G29C, A30C
DNA 1: CAATCTGAATTCCGGTCTCCC
DNA 2: TGGTGGCTACGACGGGATT
B7: AAUGCAG (DNA:RNA)
RNA: B4 RNA with C25A, C26A, G27U, U28G, G29C
DNA 1: CAATCTGAATTCCGGTCTCCC
DNA 2: TGGTGGCTACGACGGGATT
B8: CACGCGA (DNA:RNA)
RNA: B4 RNA with C26A, G27C, U28G, G29C, A30G, G31A
DNA 1: CAATCTGAATTCCGGTCTCCC
DNA 2: TGGTGGCTACGACGGGATT
B9: GGGGACU (DNA:RNA)
RNA: B4 RNA with C25G, C26G, U28G, G29A, A30C, G31U
DNA 1: CAATCTGAATTCCGGTCTCCC
DNA 2: TGGTGGCTACGACGGGATT
B10: GCCAAUC (DNA:RNA)
RNA: B1 RNA with U25G, U26C, U29A, C30U
DNA 1: CAATCTGAATTCCGGTCTCCC
DNA 2: TGGTGGCTACGACGGGATT
B11: CAGAAGG (DNA:RNA)
RNA: B4 RNA with C26A, U28A, G29A, A30G
DNA 1: CAATCTGAATTCCGGTCTCCC
DNA 2: TGGTGGCTACGACGGGATT
B12: CUUACUG (DNA:RNA)
RNA: B4 RNA with C26U, G27U, U28A, G29C, A30U
DNA 1: CAATCTGAATTCCGGTCTCCC
DNA 2: TGGTGGCTACGACGGGATT
B13: UGAGCUU (DNA:RNA)
RNA: B1 RNA with U26G, C27A, A28G, U29C, C30U, C31U
DNA 1: CAATCTGAATTCCGGTCTCCC
DNA 2: TGGTGGCTACGACGGGATT
B14: AGCUUUG (DNA:RNA)
RNA: B4 RNA with C25A, C26G, G27C, G29U, A30U
DNA 1: CAATCTGAATTCCGGTCTCCC
DNA 2: TGGTGGCTACGACGGGATT
B15: GCCACUC (DNA:RNA)
RNA: B1 RNA with U25G, U26C, U29C, C30U
DNA 1: CAATCTGAATTCCGGTCTCCC
DNA 2: TGGTGGCTACGACGGGATT
B16: UUUAACG (DNA:RNA)
RNA: B1 RNA with C27U, U29A, C31G
DNA 1: CAATCTGAATTCCGGTCTCCC
DNA 2: TGGTGGCTACGACGGGATT
B17: GCUUCCC (DNA:RNA)
RNA: B4 RNA with C25G, G27U, G29C, A30C, G31C
DNA 1: CAATCTGAATTCCGGTCTCCC
DNA 2: TGGTGGCTACGACGGGATT
B18: CCAAAUG (DNA:RNA)
RNA: B4 RNA with G27A, U28A, G29A, A30U
DNA 1: CAATCTGAATTCCGGTCTCCC
DNA 2: TGGTGGCTACGACGGGATT
B19: AAUCUCG (DNA:RNA)
RNA: B1 RNA with U25A, U26A, C27U, A28C, C31G
DNA 1: CAATCTGAATTCCGGTCTCCC
DNA 2: TGGTGGCTACGACGGGATT
B20: UCUCUAU (DNA:RNA)
RNA: B4 RNA with C25U, G27U, U28C, G29U, G31U
DNA 1: CAATCTGAATTCCGGTCTCCC
DNA 2: TGGTGGCTACGACGGGATT
B21: UGCCGUC (DNA:RNA)
RNA: B1 RNA with U26G, A28C, U29G, C30U
DNA 1: CAATCTGAATTCCGGTCTCCC
DNA 2: TGGTGGCTACGACGGGATT
B22: ACUUUUG (DNA:RNA)
RNA: B4 RNA with C25A, G27U, G29U, A30U
DNA 1: CAATCTGAATTCCGGTCTCCC
DNA 2: TGGTGGCTACGACGGGATT
B23: GACGCCC (DNA:RNA)
RNA: B1 RNA with U25G, U26A, A28G, U29C
DNA 1: CAATCTGAATTCCGGTCTCCC
DNA 2: TGGTGGCTACGACGGGATT
B24: GUUUCGA (DNA:RNA)
RNA: B4 RNA with C25G, C26U, G27U, G29C, A30G, G31A
DNA 1: CAATCTGAATTCCGGTCTCCC
DNA 2: TGGTGGCTACGACGGGATT
B25: UAUAAUG (DNA:RNA)
RNA: B1 RNA with U26A, C27U, U29A, C30U, C31G
DNA 1: CAATCTGAATTCCGGTCTCCC
DNA 2: TGGTGGCTACGACGGGATT
B26: AUGAGUC (DNA:RNA)
RNA: B1 RNA with U25A, C27G, U29G, C30U
DNA 1: CAATCTGAATTCCGGTCTCCC
DNA 2: TGGTGGCTACGACGGGATT
B27: CGAGCUC (DNA:RNA)
RNA: B4 RNA with C26G, G27A, U28G, G29C, A30U, G31C
DNA 1: CAATCTGAATTCCGGTCTCCC
DNA 2: TGGTGGCTACGACGGGATT
B28: CUGGCUU (DNA:RNA)
RNA: B4 RNA with C26U, U28G, G29C, A30U, G31U
DNA 1: CAATCTGAATTCCGGTCTCCC
DNA 2: TGGTGGCTACGACGGGATT
B29: UGCCUUU (DNA:RNA)
RNA: B1 RNA with U26G, A28C, C30U, C31U
DNA 1: CAATCTGAATTCCGGTCTCCC
DNA 2: TGGTGGCTACGACGGGATT
B30: AAAUAAA (DNA:RNA)
RNA: B4 RNA with C25A, C26A, G27A, G29A, G31A
DNA 1: CAATCTGAATTCCGGTCTCCC
DNA 2: TGGTGGCTACGACGGGATT
B31: GCCAGCC (DNA:RNA)
RNA: B1 RNA with U25G, U26C, U29G
DNA 1: CAATCTGAATTCCGGTCTCCC
DNA 2: TGGTGGCTACGACGGGATT

Where a chain is given by its changes, count along the chain named. This is one part of the list.

The experiment deals with T1, RBFOX1 RRM (Homo sapiens, UniProt Q9NWB1 109-208).
T1 sequence: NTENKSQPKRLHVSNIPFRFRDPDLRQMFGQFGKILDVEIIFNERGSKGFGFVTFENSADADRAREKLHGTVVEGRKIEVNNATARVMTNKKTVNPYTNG
Briefly: EMSA; HiTS-Eq, 1 nM pool, 10 min; buffer printed only for the single-RNA assays: 10 mM Tris pH 7.5, 150 mM NaCl, 3.4 mM EDTA, 0.001% NP-40, 30 C. Particulars: tags: His6 N-terminal (pET28a); label: 5' 32P. The method, boiled down:
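Relative association constants, normalised to the cognate motif, were derived by comparing read counts of each RNA species with those of the control reaction. The RNA sequenced was the free fraction, separated by 8% native PAGE after a 10 min equilibration in 50 µL of 1 nM 5′-radiolabelled RNA (7 randomized nucleotides) with increasing concentrations of purified wild-type or mutant RbFox RRM.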
In general terms: A gel shift assay detects complexes by their altered migration in electrophoresis.
Turning to B1, the binding signal was 0.00306 KA relative to UGCAUGU. For B2, the binding signal is 0.0114 KA relative to UGCAUGU. In the case of B3 it was 0.0128 KA relative to UGCAUGU; in that of B4, 0.0105 KA relative to UGCAUGU; in that of B5, 0.021 KA relative to UGCAUGU. Turning to B6, the binding signal was 0.0123 KA relative to UGCAUGU. As for B7, the binding signal is 0.00831 KA relative to UGCAUGU. With B8 the figure was 0.00357 KA relative to UGCAUGU; with B9, 0.0239 KA relative to UGCAUGU; with B10, 0.00618 KA relative to UGCAUGU. With B11 the figure was 0.0092 KA relative to UGCAUGU; with B12, 0.00968 KA relative to UGCAUGU; with B13, 0.0173 KA relative to UGCAUGU. In the case of B14 it was 0.0178 KA relative to UGCAUGU. As for B15, the binding signal was 0.00506 KA relative to UGCAUGU. In the case of B16 it was 0.00766 KA relative to UGCAUGU. In the case of B17 it was 0.00968 KA relative to UGCAUGU. With B18 the figure was 0.00451 KA relative to UGCAUGU; with B19, 0.007 KA relative to UGCAUGU; with B20, 0.00378 KA relative to UGCAUGU.

Turning to B21, the binding signal is 0.0192 KA relative to UGCAUGU.

Consider B22, for which the binding signal is 0.0162 KA relative to UGCAUGU. In the case of B23, the binding signal was 0.0113 KA relative to UGCAUGU. In the case of B24 it was 0.0203 KA relative to UGCAUGU; in that of B25, 0.0111 KA relative to UGCAUGU; in that of B26, 0.0125 KA relative to UGCAUGU. Turning to B27, the binding signal was 0.0118 KA relative to UGCAUGU. In the case of B28 it was 0.0169 KA relative to UGCAUGU; in that of B29, 0.0166 KA relative to UGCAUGU. On to B30, for which the binding signal was 0.000652 KA relative to UGCAUGU.

Consider B31, for which the binding signal was 0.0113 KA relative to UGCAUGU.
